According to paper PMC4336329 (PLoS ONE, 2015):
In all, about 310,000 compounds went through this assay and about 14,000 (4.5%) showed an effect of 50% or more. The effect is printed as a negative number. Some of the results follow.

What follows are compounds tested against human ether-à-go-go-related gene (hERG) potassium channel (human, UniProt Q12809) (assay: primary screen, population patch clamp on CHO cells stably expressing hERG).
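Also: peak tail current of the secondary pulse compared with the same well before compound.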

Chain of human ether-à-go-go-related gene (hERG) potassium channel (Q12809 whole entry, looked up): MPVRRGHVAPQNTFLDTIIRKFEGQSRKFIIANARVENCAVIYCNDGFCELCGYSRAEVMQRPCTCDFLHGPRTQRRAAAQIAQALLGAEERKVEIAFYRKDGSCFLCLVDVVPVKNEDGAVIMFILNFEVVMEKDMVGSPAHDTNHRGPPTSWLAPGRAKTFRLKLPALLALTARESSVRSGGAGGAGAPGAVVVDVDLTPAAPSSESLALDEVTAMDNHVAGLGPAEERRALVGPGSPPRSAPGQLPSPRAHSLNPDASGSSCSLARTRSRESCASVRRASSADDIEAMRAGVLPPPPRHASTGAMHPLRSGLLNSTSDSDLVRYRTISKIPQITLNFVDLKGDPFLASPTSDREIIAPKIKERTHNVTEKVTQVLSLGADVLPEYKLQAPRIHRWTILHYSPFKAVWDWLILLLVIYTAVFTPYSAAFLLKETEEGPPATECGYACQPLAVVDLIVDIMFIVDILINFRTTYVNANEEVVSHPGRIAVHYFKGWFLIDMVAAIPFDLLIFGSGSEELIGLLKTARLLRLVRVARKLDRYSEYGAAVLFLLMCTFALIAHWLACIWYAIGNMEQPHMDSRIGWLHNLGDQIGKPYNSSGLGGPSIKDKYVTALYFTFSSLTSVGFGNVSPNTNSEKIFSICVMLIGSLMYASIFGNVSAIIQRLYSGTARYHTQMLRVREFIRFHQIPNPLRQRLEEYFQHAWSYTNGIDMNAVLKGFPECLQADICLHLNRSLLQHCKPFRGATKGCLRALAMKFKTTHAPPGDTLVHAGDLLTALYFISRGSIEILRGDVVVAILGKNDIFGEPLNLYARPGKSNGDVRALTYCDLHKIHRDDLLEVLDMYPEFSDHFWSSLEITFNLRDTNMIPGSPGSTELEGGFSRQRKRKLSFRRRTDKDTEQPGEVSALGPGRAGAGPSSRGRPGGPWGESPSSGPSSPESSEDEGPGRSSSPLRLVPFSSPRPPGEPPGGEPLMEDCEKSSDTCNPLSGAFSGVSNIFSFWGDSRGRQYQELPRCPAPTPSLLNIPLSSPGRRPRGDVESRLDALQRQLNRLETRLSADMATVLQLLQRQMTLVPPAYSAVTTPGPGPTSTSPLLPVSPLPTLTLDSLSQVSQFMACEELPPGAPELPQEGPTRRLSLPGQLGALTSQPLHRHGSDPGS

Row | Structure (SMILES) | hERG current change (%, negative = inhibition) at 10uM [%]
1 | CN(C(=O)COC(=O)C1COc2ccccc2O1)C1(C#N)CCCCC1 (stereo not drawn) | -8.44
2 | O=C(NC(=S)Nc1ccccc1N1CCCCC1)c1ccc(F)cc1Cl | 20.7
3 | COc1ccccc1CN1CCN(C(=O)COc2cccc(C)c2)CC1.O=C(O)C(=O)O | -20.2
4 | COC(=O)Cc1c(O)ccn(CCc2ccc(OC)c(OC)c2)c1=O | 16.9
5 | Cl.NS(=O)(=O)c1ccc(CCNC/C=C/c2ccccc2)cc1 | -48.7
6 | COc1cccc(CNC(=O)c2cccc(S(=O)(=O)N3CCN(C)CC3)c2)c1 | -5.06
7 | C=C(C)Cn1c(N2CCN(c3ccc(OC)cc3)CC2)nc2c1c(=O)n(C)c(=O)n2C | -17.7
8 | COc1c(OC2OC(C(=O)O)C(O)C(O)C2O)cc(O)c2c(=O)cc(-c3ccccc3)oc12 (stereo not drawn) | 11.7
9 | O=C(COC(=O)Cc1c(F)cccc1Cl)Nc1nnc(-c2ccccc2)o1 | -11
10 | O=C(NCCc1ccc(F)cc1)c1cccc(NC(=O)c2ccccc2)c1 | -13.9
11 | CNC[C@H](Cc1ccccc1)NC[C@@H](Cc1cccc2ccccc12)NCCc1ccc(C)cc1 | -8.43
12 | C=CCn1c(SCc2cccc(OC)c2)nnc1-c1ccncc1 | -15.5
13 | COc1ccc2c(CC(=O)N3CCc4ccccc43)coc2c1 | 10.1
14 | O=C(COC(=O)CCC(=O)c1cccs1)NCc1cccs1 | 10.3
15 | N#Cc1ccccc1S(=O)(=O)N1CCN(Cc2c(O)ccc3ccccc23)CC1 | -6.74
16 | COCCn1c(=S)[nH]c2ccccc21 | 28.7
17 | O=S1(=O)N=C2CCCCCN2C(c2ccccc2)N1 (stereo not drawn) | -5.77
18 | CCOC(=O)c1cccc(NC(=O)c2ccc(NC(=O)c3ccco3)cc2)c1 | 19.6
19 | Cc1ccc(C2=CC(c3ccccc3)n3ncnc3N2)c(C)c1 (stereo not drawn) | 5.73
20 | COc1ccc(/C=C(/NC(=O)c2ccccc2)C(=O)N2CCCCC2)cc1 | -1.39
21 | CC(=O)NC(Nc1c(C)n(C)n(-c2ccccc2)c1=O)C(Cl)(Cl)Cl (stereo not drawn) | 12.9

Row | Structure (SMILES) | hERG current change (%, negative = inhibition) at 10uM [%]
22 | O=C(CSc1nc2[nH]ncc2c(=O)[nH]1)Nc1ccccc1F | -16.2
23 | COCCNC(=S)NCCCNc1nc2cc3c(cc2cc1C#N)OCO3 | -4.47
24 | Cc1cccc(C)c1NC(=O)CN1C(=O)S/C(=C\c2cccn2-c2cccc(C(=O)O)c2)C1=O | 11.5
25 | COc1ccc(N(CC(=O)NCc2ccco2)C(=O)CCC(=O)Nc2nccs2)cc1 | 2.22
26 | O=C(O)C/C(=C\c1cc(Cl)c2c(c1)OCO2)c1nc2ccccc2s1 | 8.49
27 | Cc1cccc(C)c1NC(=O)CSc1cc(C(=O)c2nccn2C)c2ccccc2n1 | 12.6
28 | CCNC(=O)C(C)NC(=O)C1=NN(c2ccccc2)C(=O)CC1 (stereo not drawn) | 11.8
29 | Cc1ccccc1Nc1c(-c2cccnc2)nc2cccc(C)n12 | -25.2
30 | COCCOC1CCN(C(=O)c2ccc(OC)c(OC3CCN(C(C)C)CC3)c2)CC1 | 14.4
31 | Cc1ccc(C(=O)NCC(=O)Nc2cccc(S(=O)(=O)NC3=NCCCCC3)c2)cc1C | 21.5
32 | CN(CCC(=O)Nc1ccc(Br)cc1)Cc1ccccc1 | -38.4
33 | CS(=O)(=O)c1ccc2nc(NC(=O)c3cc([N+](=O)[O-])cc([N+](=O)[O-])c3)sc2c1 | -3.36
34 | CCCn1c(SCC(=O)N2CCCc3ccccc32)nnc1-c1ccco1 | -6.27
35 | N#CCSc1nnc(-c2c[nH]c3ccccc23)o1 | 5.16
36 | C=CCNC(=O)CCCOc1cccc(C)c1 | 8.36
37 | COc1ccc(CCN2CCCn3c2nc2c3c(=O)[nH]c(=O)n2C)cc1OC | 3.03
38 | CCN(CC)CCSc1nnc2c3ccccc3n(CCc3ccccc3)c2n1 | -75.3
39 | COc1ccccc1/C=N/NC(=O)C1=NNC(c2ccccc2)(c2ccccc2)C1 | 2.43
40 | CN(CC(=O)Nc1cccc(F)c1)CC(=O)Nc1cccc(S(N)(=O)=O)c1 | 15.1
41 | Cc1ccc(NC(=O)Cn2ncc3c([nH]c4ccccc43)c2=O)cc1Cl | 21.4
42 | Cc1ccccc1NC(=O)NC1(C(=O)N2CCC(C(N)=O)CC2)CCCCC1 | -2.5
